The other results are listed elsewhere or left out. Shown are side measurements of this screen, not its main read-out; they come without a call. The note in brackets gives the kind of curve behind each potency; many fits are weak.

The assay is described as follows: qHTS drug screen for cell cycle checkpoint inhibitors in PARPi-resistant BRCA-mutant ovarian cancer cell lines. (AID 1963452). As to conditions: PEO1/OlaR viability, CellTiter-Glo luminescence, 96 h. Summed up: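 PEO1, PEO4 and PEO1/OlaR ovarian cancer cells, 600 per well, exposed 96 h at 37C to a dilution series. Viability read by CellTiter-Glo luminescence, normalized to DMSO and empty wells; activity summarized as Z-AUC.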

The mark [1] stands for this setting: measured here: PEO1 parental viability.
Tags tell the direction and shape of the fitted curve.

Consider `CC(C)(O)CCc1ccc(OCc2cc(-c3cccc(OC(F)F)c3)c3ncccc3c2)cc1`, for which the AC50 is 15.5 µM [falling, single point] under setting [1] and 19.5 µM [falling, single point] (measured here: PEO4 viability).

For the compound `C/C=C/C[C@@H](C)C(=O)[C@H]1C(=O)N[C@@H](C(C)C)C(=O)N(C)CC(=O)N(C)[C@@H](CC(C)C)C(=O)N[C@@H](C(C)C)C(=O)N(C)[C@@H](CC(C)C)C(=O)N[C@@H](C)C(=O)N[C@H](C)C(=O)N(C)[C@@H](CC(C)C)C(=O)N(C)[C@@H](CC(C)C)C(=O)N(C)[C@@H](C(C)C)C(=O)N1C`, the concentration at half-maximal activity (AC50) runs as follows: under setting [1], 0.0301 µM [falling, full curve]; (measured here: PEO4 viability) 4.77 µM [falling, partial curve, poor fit].

As for `Cc1ccc(S(=O)(=O)Cc2nc(-c3ccc(C(=O)NCc4cccnc4)cc3)oc2C)cc1`, the AC50 under setting [1] was 0.049 µM [falling, full curve] and the concentration at half-maximal activity (AC50) (measured here: PEO4 viability) is 0.0389 µM [falling, full curve].

For the compound `Cc1cc(C(=O)Nc2cc(Nc3ccc4c(/C=C/c5ccccn5)n[nH]c4c3)ccc2F)n(C)n1`, the AC50 under setting [1] is 19.5 µM [falling, partial curve, poor fit] and the AC50 (measured here: PEO4 viability) is 15.5 µM [falling, partial curve].

Turning to `CCc1cnn2c(NCc3ccc[n+]([O-])c3)cc(N3CCCC[C@H]3CCO)nc12`, the AC50 under setting [1] is 0.0977 µM [falling, full curve] and the AC50 (measured here: PEO4 viability) is 0.219 µM [falling, full curve].

`COc1c(Nc2ncc(Cl)c(N[C@H]3[C@@H](C(N)=O)[C@@H]4C=C[C@H]3C4)n2)ccc2c1CC[C@@H](N1CCOCC1)CC2`: the half-maximal activity concentration (AC50) is 5.49 µM [falling, partial curve] under setting [1] and 4.9 µM [falling, partial curve] (measured here: PEO4 viability).

Regarding `Nc1ccn([C@@H]2C(F)=C(CO)[C@@H](O)[C@H]2O)c(=O)n1`, the half-maximal activity concentration (AC50) under setting [1] is 3.47 µM [falling, partial curve] and the AC50 (measured here: PEO4 viability) is 6.92 µM [falling, partial curve].

For `C=C1C(=O)O[C@@H]2[C@H]3C(C)=CC[C@@]34O[C@@]4(C)CC[C@@H]12`, the AC50 under setting [1] was 24.5 µM [falling, single point] and the AC50 (measured here: PEO4 viability) is 15.5 µM [falling, single point].

On to `O=C(NCc1ccc(S(=O)(=O)c2cccc(C(F)(F)F)c2)cc1)c1cnc2[nH]ncc2c1`, for which the AC50 is 0.0155 µM [falling, full curve] under setting [1] and 0.0436 µM [falling, full curve] (measured here: PEO4 viability).

Regarding `CCOc1cc(C(C)(C)C)ccc1C1=N[C@@](C)(c2ccc(Cl)cc2)[C@@](C)(c2ccc(Cl)cc2)N1C(=O)N1CCN(CC(=O)N2CCOCC2)CC1`, the AC50 is 17.1 µM [falling, single point] under setting [1] and 17.1 µM [falling, single point] (measured here: PEO4 viability).

In the case of `CN(C)CCOc1ccc(/C(=C(/CCCl)c2ccccc2)c2ccccc2)cc1`, the AC50 under setting [1] was 17.4 µM [falling, single point] and the AC50 (measured here: PEO4 viability) was 15.5 µM [falling, single point].

Take `COc1cccc(Nc2ncnn3ccc(CN4CC[C@@H](N)[C@H](O)C4)c23)c1`: the half-maximal activity concentration (AC50) is, setting by setting: under setting [1], 3.09 µM [falling, partial curve]; (measured here: PEO4 viability) 3.47 µM [falling, partial curve, poor fit].

Turning to `C[C@H](NC(=O)c1c(N)nn2cccnc12)c1cc2cccc(C#Cc3cnn(C)c3)c2c(=O)n1-c1ccccc1`, the AC50 is, setting by setting: under setting [1], 13.4 µM [falling, partial curve, poor fit]; (measured here: PEO4 viability) 6.74 µM [falling, partial curve, poor fit].

For `CC(=O)c1cnc2ccc(-c3cc(Cl)c(O)c(Cl)c3)nc2c1NC1CCC(CN(C)C)CC1` (stereo not drawn), the AC50 is, setting by setting: under setting [1], 0.448 µM [falling, full curve]; (measured here: PEO4 viability) 0.633 µM [falling, full curve].

Source of the values: PubChem BioAssay (NCATS).
